# Laboratory results taken from the supplement of paper PMC4723716.
# ± gives the uncertainty stated by the source. Over roughly 9,900 compounds, “viability index relative to DMSO control” has its median near 1; the lowest 2% begin near 0.85. The list shows a part of the results.
# Test system: Plasmodium falciparum NF54 stage V gametocytes
# Test: viability index relative to DMSO control (fraction); higher = less gametocyte killing
# Settings: 2.5 µM, incubation time: 72 h
# How it was run: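 In 1,536-well plates, 10 µl of serum-free medium holding P. falciparum NF54 stage V gametocytes (0.75% gametocytemia, 1.25% hematocrit) received compound at 2.5 µM for 72 hr at 37°C in low oxygen. After one to two hours with 3 µl of 2.5 µM MitoTracker Red CMXRos containing 0.13% saponin, red particles of 20–70 µm2 were counted in a single field per well. Viability index is reported as the particle count over the plate mean of wells treated with solvent only.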
# [1] = library set: Broad Institute DOS
Compound,viability index [1],viability index (library set: Broad Institute Blood Stage)
CN1C(=O)c2cc(NC(=O)c3cnccn3)ccc2OC[C@H]2O[C@@H](CC(=O)NCC3CCCCC3)CC[C@H]21,0.994 ± 0.031,–
O=C(CC1CC1)N1CC(=O)N2[C@H](CO)[C@H](c3ccc(C#Cc4cccc(F)c4)cc3)[C@H]2C1,0.998 ± 0.045,–
O=C(C[C@@H]1CC[C@H]2[C@@H](COC[C@H](O)CN2CC2CCOCC2)O1)NCc1ccc(Cl)cc1,1.13 ± 0.074,–
COCC(=O)Nc1ccc2c(c1)C(=O)N(C)[C@H]1CC[C@H](CC(=O)N3CCc4ccccc4C3)O[C@H]1CO2,1.01 ± 0.041,–
CCCC(=O)Nc1ccc2c(c1)OC[C@@H](C)NC[C@H](C)[C@H](OC)CN(C)C2=O,0.984 ± 0.04,–
C[C@@H]1CN([C@H](C)CO)C(=O)Cc2cc(NC(=O)CCCCCC(=O)Nc3ccccc3N)ccc2O[C@@H]1CN(C)S(=O)(=O)c1cccs1,1.0088 ± 0.00029,–
COC(=O)C[C@@H]1C[C@H]2c3cc(NC(=O)C4CCOCC4)ccc3O[C@H]2[C@@H](CO)O1,1.06 ± 0.051,–
CO[C@H]1CN(C)C(=O)c2cc(NS(C)(=O)=O)ccc2OC[C@@H](C)N(Cc2cncnc2)C[C@H]1C,1.058 ± 0.0054,–
N#C[C@H]1[C@@H](c2ccccc2C2=CCCC2)[C@H](CO)N1C(=O)c1cccc(F)c1,1.12 ± 0.075,–
CC(C)N(C[C@H]1[C@H](c2ccccc2)[C@H](CO)N1S(C)(=O)=O)C(=O)CN(C)C,1 ± 0.015,–
Cc1ccccc1-c1cnc2c(c1)C(=O)N([C@@H](C)CO)C[C@@H](C)[C@H](CN(C)Cc1ccccc1F)O2,1.06 ± 0.051,–
COC(=O)[C@@H]1[C@@H](CO)[C@@H]2Cn3c(ccc(-c4ccncc4)c3=O)[C@@H]2N1Cc1ccccc1F,1.06 ± 0.018,–
COCC(=O)N1[C@@H](C#N)[C@@H](c2ccccc2-c2ccccc2F)[C@@H]1CO,1.12 ± 0.065,–
C[C@@H]1CCCCO[C@@H](CN(C)S(=O)(=O)c2ccccc2)[C@@H](C)CN([C@@H](C)CO)C(=O)c2cc(NC(=O)Nc3ccc4c(c3)OCO4)ccc2O1,0.983 ± 0.084,–
COCC(=O)Nc1ccc2c(c1)[C@H]1C[C@@H](CC(=O)N[C@H](C)c3ccccc3)O[C@@H](CO)[C@H]1O2,1.05 ± 0.075,–
O=C(C[C@H]1CC[C@H]2[C@@H](COC[C@@H](O)CN2Cc2nccs2)O1)N1CCC(Cc2ccccc2)CC1,1.0462 ± 4.2e-05,–
O=C(NCC[C@H]1CC[C@@H](NC(=O)c2ccccc2F)[C@H](CO)O1)c1cnccn1,0.985 ± 0.093,–
C[C@H](CO)N1C[C@H](C)[C@H](CN(C)C(=O)Nc2cccc3ccccc23)Oc2ccc(NS(=O)(=O)c3cn(C)cn3)cc2C1=O,0.934 ± 0.099,–
C[C@@H]1CN([C@H](C)CO)C(=O)c2ccccc2-c2ccccc2CO[C@@H]1CN(C)S(=O)(=O)c1cccs1,0.984 ± 0.08,–
C/C=C/c1ccc([C@H]2[C@@H](CO)N[C@@H]2CN(CC(C)C)C(=O)c2ccccn2)cc1,0.916 ± 0.018,–
C[C@H]1CN([C@@H](C)CO)C(=O)CCCn2nncc2CO[C@@H]1CN(C)C(=O)CCC(F)(F)F,1.057 ± 0.0082,–
CN(C)CC(=O)N1[C@@H](C#N)[C@@H](c2ccccc2-c2ccccc2F)[C@@H]1CO,1.14 ± 0.074,–
Cc1noc(C)c1NC(=O)N1C[C@@H](O)COC[C@@H]2O[C@H](CC(=O)N[C@@H]3CCN(Cc4ccccc4)C3)CC[C@H]21,1.1 ± 0.021,–
CC(C)(C)[S@@](=O)N1Cc2cc(C(=O)NC3CCC3)nc(-c3cccc(Br)c3)c2[C@H]1CCO,0.994 ± 0.058,–

Compound,viability index [1],viability index (library set: Broad Institute Blood Stage)
O=C(c1cccc(F)c1)N1CCCCN2[C@H](CO)[C@H](c3ccc(C#CC4(O)CCCC4)cc3)[C@H]2C1,1.01 ± 0.037,–
CCC(=O)N1[C@@H]2Cn3c(ccc(-c4ccccc4F)c3=O)[C@H]1[C@@H](C(=O)NC1CCC1)[C@@H]2CO,1.1 ± 0.018,–
CCCNC(=O)C[C@@H]1CC[C@H]2[C@@H](COC[C@H](O)CN2Cc2ccncc2)O1,1.06 ± 0.04,–
O=C(c1ccccc1F)N1CC[C@@H]2[C@@H](CO)Nc3ccc(Br)cc3[C@@H]21,1.08 ± 0.091,–
CCCC(=O)Nc1ccc2c(c1)OC[C@@H](C)N(S(=O)(=O)c1cn(C)cn1)C[C@@H](C)[C@H](OC)CN(C)C2=O,1.07 ± 0.12,–
CN(C)CC(=O)N1[C@H](CO)[C@@H](c2ccc(C#CC3CCCCC3)cc2)[C@@H]1C#N,1.11 ± 0.085,–
C[C@H](CO)N1C[C@H](C)[C@@H](CN(C)C(=O)Nc2ccccc2C(F)(F)F)OCc2cnnn2CCCC1=O,1.085 ± 0.0058,–
O=C(Cc1ccncc1)N1CC(=O)N2[C@H](C1)[C@@H](c1ccc(Br)cc1)[C@@H]2CO,1.07 ± 0.024,–
OC[C@H]1N[C@@H](CNCC2CCC2)[C@@H]1c1ccc(C2=CCCCC2)cc1,1.03 ± 0.028,–
O=C1N[C@@H](Cc2ccccc2)COCc2cn(nn2)CC[C@@H]1Cc1cccc(F)c1,0.941 ± 0.099,–
C[C@@H]1CCCCO[C@H](CN(C)C(=O)Nc2ccc(C(F)(F)F)cc2)[C@@H](C)CN([C@@H](C)CO)C(=O)c2cc(NS(=O)(=O)c3cn(C)cn3)ccc2O1,1.09 ± 0.019,–
C/C=C/c1ccc([C@@H]2[C@H]3CN(S(=O)(=O)c4ccc(OC)cc4)CCCCN3[C@H]2CO)cc1,1.05 ± 0.022,–
COc1cccc(-c2ccccc2[C@H]2[C@@H](CO)N(C(=O)Cc3ccccc3)[C@H]2C#N)c1,1.04 ± 0.19,–
Cc1cccc(S(=O)(=O)N2C[C@@H](O)COC[C@H]3O[C@@H](CC(=O)Nc4ccccc4)CC[C@@H]32)c1,1.12 ± 0.027,–
COC(=O)C[C@@H]1CC[C@H]2[C@H](COc3ccc(NS(=O)(=O)c4ccc(C)cc4)cc3C(=O)N2C)O1,1.01 ± 0.023,–
COc1ccccc1C(=O)Nc1ccc2c(c1)C(=O)N(C)C[C@@H](OC)[C@H](C)CN(C(C)=O)[C@@H](C)CO2,1.05 ± 0.041,–
O=C(C[C@H]1CC[C@H]2[C@@H](COC[C@@H](O)CN2Cc2ccc(C(F)(F)F)cc2)O1)N1CCc2ccccc2C1,0.968 ± 0.024,–
C[C@@H]1CN([C@@H](C)CO)C(=O)c2ccccc2-c2ccccc2CO[C@H]1CN(C)C(=O)c1cc(Cl)cc(Cl)c1,0.937 ± 0.19,–
CCC(=O)N1[C@H](CO)[C@@H](c2ccc(-c3cccc(OC)c3)cc2)C12CN(C(C)=O)C2,1.12 ± 0.012,–
C[C@@H]1CN([C@H](C)CO)C(=O)c2ccccc2-c2ccccc2CO[C@@H]1CN(C)C(=O)Nc1ccnc(N2CCOCC2)c1,0.975 ± 0.044,–
Cc1ccc(S(=O)(=O)Nc2ccc3c(c2)C(=O)N([C@H](C)CO)C[C@H](C)[C@@H](CN(C)S(=O)(=O)c2cccs2)OCCCC[C@@H](C)O3)cc1,1.17 ± 0.045,–
CCCNC(=O)N(C)C[C@H]1Oc2cc(C#C[C@@H](C)O)ccc2S(=O)(=O)N([C@@H](C)CO)C[C@@H]1C,0.987 ± 0.014,–
CCCC(=O)N1C[C@H]2[C@@H](c3ccccc31)[C@@H](CO)N2C(=O)Nc1ccc(F)cc1,0.983 ± 0.045,–
CN1C(=O)c2cc(NC(=O)c3cnccn3)ccc2OC[C@H]2O[C@@H](CC(=O)N[C@@H]3CCN(Cc4ccccc4)C3)CC[C@@H]21,1.08 ± 0.044,–

Compound,viability index [1],viability index (library set: Broad Institute Blood Stage)
COCC#Cc1ccc([C@H]2[C@@H](CO)N3C(=O)CN(C(=O)C4CCCCC4)C[C@H]23)cc1,1.03 ± 0.011,–
C[C@H](NC(=O)C[C@H]1CC[C@@H]2[C@@H](COc3ccc(NS(=O)(=O)c4ccc(Cl)cc4)cc3C(=O)N2C)O1)c1ccccc1,0.97 ± 0.023,–
COc1ccc2c3c([C@@H](CO)N(C[C@]33CCN(Cc4cccc(F)c4)CC3)C(=O)C3CC3)n(C)c2c1,0.997 ± 0.1,–
CC(C)CC#Cc1ccc([C@@H]2[C@@H](CO)N3C(=O)CN(C(=O)c4ccccn4)C[C@H]23)cc1,1.09 ± 0.048,–
CCC(=O)N1C[C@@]2(C1)CN(Cc1cccc(Cl)c1)[C@@H](CO)c1[nH]c3cc(OC)ccc3c21,1.01 ± 0.063,–
CCC(=O)N1CC[C@H]2[C@@H]1c1cc(-c3ccc(C#N)cc3)ccc1N(C)[C@H]2CO,1.13 ± 0.044,–
CO[C@H](CN(C)Cc1cc(F)ccc1F)[C@H](C)CN(C(=O)Nc1ccc(C(F)(F)F)cc1)[C@H](C)CO,1.12 ± 0.046,–
C[C@@H]1CN([C@@H](C)CO)C(=O)Cc2cc(NC(=O)CCCCCC(=O)Nc3ccccc3N)ccc2O[C@@H]1CN(C)S(=O)(=O)c1cccs1,0.9793 ± 0.0018,–
CCS(=O)(=O)N1C[C@@]2(C1)CN([C@@H](CO)c1c2c2ccc(OC)cc2n1C)C(=O)c1ccc(F)cc1,0.92 ± 0.1,–
COc1ccc(-c2ccc([C@@H]3[C@@H](CO)N(C(=O)NC(C)C)[C@H]3C#N)cc2)cc1,1.05 ± 0.08,–
O=C(c1ccc2c(c1)OCO2)N1C[C@H]2[C@@H](c3ccccc31)[C@H](CO)N2C(=O)CC1CC1,1 ± 0.081,–
CCS(=O)(=O)N(C)C[C@@H]1N[C@H](CO)[C@@H]1c1ccc(-c2ccccc2F)cc1,1.05 ± 0.031,–
COc1ccc(CNC(=O)C[C@@H]2C=C[C@@H](NC(=O)c3cccc(F)c3)[C@@H](CO)O2)cc1,1 ± 0.096,–
CCS(=O)(=O)NCC[C@@H]1CC[C@@H](NC(=O)Nc2cc(Cl)cc(Cl)c2)[C@@H](CO)O1,1.11 ± 0.15,–
CO[C@H]1CN(C)C(=O)c2ccc(NC(=O)NC(C)C)cc2OC[C@@H](C)N(Cc2ccc(-c3ccccn3)cc2)C[C@@H]1C,1.078 ± 0.0022,–
C[C@H](CO)N1C[C@H](C)[C@H](CN(C)Cc2ccc(C(=O)Nc3ccccc3N)cc2)Oc2ccc(NC(=O)Cn3cnnn3)cc2C1=O,1.02 ± 0.014,–
CC(=O)N(Cc1cccc(F)c1)C[C@@H]1[C@@H](c2ccccc2)[C@@H](CO)N1C(C)=O,0.9309 ± 0.0049,–
CC[C@H]1C/C=C\C[C@H](CC)NC(=O)[C@@H](C)CC(=O)N1,1 ± 0.013,–
C[C@H]1CN([C@@H](C)CO)C(=O)c2c(c3ccccc3n2C)-c2ccccc2CO[C@H]1CN(C)S(=O)(=O)c1ccc(Cl)cc1,–,0.738 ± 0.023
CO[C@H]1CN(C)C(=O)c2cc(NS(=O)(=O)c3cn(C)cn3)ccc2OC[C@H](C)NC[C@@H]1C,0.955 ± 0.082,–
O=C(C[C@H]1CC[C@@H]2[C@H](COC[C@H](O)CN2Cc2ccc(F)cc2)O1)NCCc1ccccc1,1.04 ± 0.039,–
CCS(=O)(=O)Nc1ccc2c(c1)C(=O)N(C)[C@@H]1CC[C@@H](CC(=O)NC3CCCCC3)O[C@H]1CO2,0.978 ± 0.046,–
